# The campaign covered roughly 310,000 compounds. About 14,000 (4.5%) showed an effect of 50% or more. Effects have a minus sign here. The list shows a part of the results.
# Target: human ether-à-go-go-related gene (hERG) potassium channel (human, UniProt Q12809)
# Assay: primary screen, population patch clamp on CHO cells stably expressing hERG
# 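Note: peak tail current of the secondary pulse compared with the same well before compound.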
# Sequence of human ether-à-go-go-related gene (hERG) potassium channel (Q12809 whole entry, looked up): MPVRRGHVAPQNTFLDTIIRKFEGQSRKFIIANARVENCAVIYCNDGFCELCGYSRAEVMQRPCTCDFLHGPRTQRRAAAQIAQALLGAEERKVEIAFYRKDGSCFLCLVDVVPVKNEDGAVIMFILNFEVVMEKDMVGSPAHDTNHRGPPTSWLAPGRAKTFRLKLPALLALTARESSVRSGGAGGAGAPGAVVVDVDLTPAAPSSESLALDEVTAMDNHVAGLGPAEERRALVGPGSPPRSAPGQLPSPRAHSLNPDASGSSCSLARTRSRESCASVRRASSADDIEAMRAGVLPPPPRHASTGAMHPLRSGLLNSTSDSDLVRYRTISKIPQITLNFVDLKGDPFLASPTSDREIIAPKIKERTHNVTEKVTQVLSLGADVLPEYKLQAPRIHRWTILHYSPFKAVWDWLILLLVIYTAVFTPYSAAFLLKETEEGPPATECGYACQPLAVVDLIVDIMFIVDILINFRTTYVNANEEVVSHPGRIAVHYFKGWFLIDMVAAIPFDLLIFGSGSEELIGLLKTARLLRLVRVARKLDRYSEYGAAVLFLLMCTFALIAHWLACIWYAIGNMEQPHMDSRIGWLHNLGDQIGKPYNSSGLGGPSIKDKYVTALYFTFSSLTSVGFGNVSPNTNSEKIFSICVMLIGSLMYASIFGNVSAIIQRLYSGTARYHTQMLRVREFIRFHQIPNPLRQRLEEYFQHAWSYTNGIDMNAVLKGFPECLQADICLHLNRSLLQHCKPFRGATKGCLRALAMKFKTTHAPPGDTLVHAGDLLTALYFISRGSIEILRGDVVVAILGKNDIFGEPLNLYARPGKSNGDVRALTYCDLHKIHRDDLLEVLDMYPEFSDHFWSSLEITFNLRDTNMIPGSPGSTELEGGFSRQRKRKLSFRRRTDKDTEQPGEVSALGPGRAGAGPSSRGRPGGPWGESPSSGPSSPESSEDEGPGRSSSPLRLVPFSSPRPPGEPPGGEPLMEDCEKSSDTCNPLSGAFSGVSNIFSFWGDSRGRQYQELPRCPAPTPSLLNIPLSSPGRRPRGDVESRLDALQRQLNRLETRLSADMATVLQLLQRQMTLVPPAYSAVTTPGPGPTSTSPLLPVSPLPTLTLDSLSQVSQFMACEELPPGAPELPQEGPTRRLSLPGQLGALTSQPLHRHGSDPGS
row,SMILES,"hERG current change (%, negative = inhibition) at 10uM [%]"
1,S=c1[nH]ncc2ccccc12,11
2,COc1ccc(CNC(=O)C(=O)NCC2OCCN2S(=O)(=O)c2cccs2)cc1 (stereo not drawn),-4.34
3,CCCn1c(N2CCN(C(=O)/C=C/C(=O)O)CC2)nc2ccccc21,9.76
4,Cc1ccc2nc(N3CCN(Cc4nnnn4Cc4ccccc4)CC3)c(C#N)cc2c1,3.53
5,Cc1ccc(-c2nc(C#N)c(NCc3ccco3)o2)cc1,-0.709
6,Cc1ccccc1-n1ncc(C(C)NC(=O)c2ccccc2)c1C (stereo not drawn),-4.33
7,O=C(CCC(=O)N1CCOc2ccccc21)N1CCOCC1,-5.85
8,CS(=O)(=O)NCCSCc1c(F)cccc1Cl,1.87
9,CC(=O)Nc1ccc(/C=C/C(=O)c2ccc3c(c2)OCCO3)cc1,-0.901
10,COc1ccc(S(=O)(=O)N2CCCCCC2)cc1C(=O)OCc1cccc(OC)c1OC,8.63
11,COc1cc(OC)cc(C(=O)NC2CCN(Cc3nnnn3Cc3ccc(F)cc3)CC2)c1,-3.98
12,CCCn1c(C(C)Nc2nc(C)cs2)nc2cc(Cl)c(Cl)cc21 (stereo not drawn),-9.28
13,CC(C)(C)NC(=O)CCSc1nnc(-c2ccco2)o1,-2.3
14,CCCN1CCC(N(CCc2ccccc2)Cc2ccccc2)CC1,-72.2
15,CCOC(=O)c1[nH]c(C(=O)O)c(CCN(CC)CC)c1C,11.2
16,Cc1c(C(=O)N2CCOCC2)c(S(=O)(=O)Nc2cccc(Br)c2)c(C)n1C,11.2
17,COc1ccc(Br)cc1/C=C/C(=O)NC(=S)Nc1ccc(CN2CCOCC2)cc1,23.2
18,Cc1cc(NC(=O)CSc2nc3cc(Cl)ccc3o2)no1,17.7
19,O=c1[nH]c(N2CCOCC2)nc2ccccc12,16.3
20,CC(C)=CCCC(C)NC(=O)NC1CCCCC1 (stereo not drawn),-3.64
21,CCOC(=O)c1cccc(S(=O)(=O)N2CCOCC2)c1,3.88
22,O=S(=O)(Nc1ccccc1O)c1cccc2cccnc12,8.14
23,CCOc1ccc(S(=O)(=O)NN=C2CCN(C(C)=O)CC2)cc1,10.7

row,SMILES,"hERG current change (%, negative = inhibition) at 10uM [%]"
1,C/C(N)=C(/C#N)C(=O)CSc1nc(-c2ccccc2)c(-c2ccccc2)o1,12.9
2,CCOC(=O)c1[nH]c2c(c1C)C(=O)CC(c1ccc(OC)c(OC)c1)C2 (stereo not drawn),-9.84
3,COc1ccc(SCCN2CC[C@@H](NC(=O)OCc3ccccc3)CCC2=O)cc1,-54.4
4,Cc1nc2ccccc2[nH]c1=O,14.5
5,O=C(Cc1ccccc1)c1nc2ccccc2s1,17
6,O=C1NCCn2ccc(=O)cc21,1.37
7,CSc1ncc(C(=O)Nc2ccccc2)cn1,10.8
8,C=C(C)C(=O)Nc1ccc2c(c1)OCCOCCOCCO2,-26.4
9,O=C(/C=C/c1ccccc1)NCc1ccc2c(c1)OCO2,2.84
10,Cc1cc(C(=O)CSc2nnc(-c3ccccc3)o2)c(C)n1CC1COc2ccccc2O1 (stereo not drawn),4.5
11,CC(Oc1cccc2cccnc12)C(=O)N/N=C/c1ccc2c(c1)OCO2 (stereo not drawn),8.29
12,O=c1[nH]c(=O)n(Cc2ccco2)c(O)c1C=NCCN1CCNCC1,13.1
13,CC(C)c1ccc(NC(=O)Cn2cccc2C2=NC(c3ccccc3)CO2)cc1 (stereo not drawn),-3.56
14,O=C(NC1CCCC1)c1cc2nc(-c3ccco3)cc(C(F)(F)F)n2n1,20.1
15,COc1ccc(C(=O)N2CCN(C3CCC(c4ccccc4)CC3)CC2)cc1OC (stereo not drawn),-69.9
16,CCOc1ccc(C(c2c(NC(=O)c3ccco3)sc(C)c2C)N2CCOCC2)cc1 (stereo not drawn),-6.78
17,CC(C)Cn1c(N)c(C(=O)COC(=O)[C@@H]2CCCN2C(=O)c2cccs2)c(=O)n(C)c1=O,-8.74
18,COc1ccc(C(=O)Nc2ccccc2C(=O)NC(Cc2c[nH]c3ccccc23)C(=O)O)cc1 (stereo not drawn),11.2
19,COc1ccc(-c2cnc(N)nc2-c2ccc(OC)cc2O)cc1,23.2
20,COc1ccccc1CN(C)C(=O)c1sccc1-c1ccccc1,-11.5
21,CC(C)CC(=O)NNC(=O)c1ccc(Cl)cc1,22.6
22,COC(=O)C1(C)NC(c2ccccc2F)C2C(=O)N(c3ccccc3)C(=O)C21 (stereo not drawn),13.4
23,CCC(=O)/C=C1/Sc2ccccc2N1CC,7.66

row,SMILES,"hERG current change (%, negative = inhibition) at 10uM [%]"
1,CN(C1CCS(=O)(=O)C1)S(=O)C12CC3CC(CC(C3)C1)C2 (stereo not drawn),17.2
2,COc1ccc(-n2c(Cc3cccn3C)nnc2SCC(=O)Nc2ccc(C)c(Cl)c2)cc1,-28.2
3,O=C(CNS(=O)(=O)c1c(Cl)cccc1Cl)OCc1csc(-c2ccccc2)n1,1.09
4,CCc1ccc(Nc2cc(C(=O)NCCCN3CCOCC3)c3ccccc3n2)cc1,-35.5
5,COCCNC(=O)/C(C#N)=C1\N=C(NC(=O)c2cccs2)c2ccccc21,6.86
6,NC(=O)C1(N2CCCCC2)CCN(C(=O)NC2CCCCC2)CC1,-6.34
7,CCn1c(Cc2c(C)[nH]c3ccccc23)nnc1SCC(=O)NCc1ccccc1,-11.7
8,CC(=O)Nc1cccc(-c2csc(Nc3ccc(C)cn3)n2)c1,0.972
9,Cc1ccc(S(=O)(=O)NCCSC(C)(C)C)cc1,-3.99
10,O=Nc1c(O)n(Cc2ccc(Cl)cc2)c2ccccc12,-0.245
11,O=C(O)c1ccc(Sc2ccccn2)c([N+](=O)[O-])c1,6.44
12,COc1ccc(N2CCN(C(=O)COC(=O)c3cccc(S(=O)(=O)Nc4cccc(C)c4)c3)CC2)cc1,-16.1
13,Cc1cc(C)nc(CCNC(=O)c2cc(COc3ccc(F)cc3F)on2)n1,-25.8
14,COc1cc(CC(CC(=O)O)CC(C)OCc2ccccc2)cc(OC)c1 (stereo not drawn),9.95
15,O=C(O)C1CN(c2ncccc2[N+](=O)[O-])C1,20.2
16,N/C(=N\OC(=O)c1ccc(F)cc1)c1cccc([N+](=O)[O-])c1,9.84
17,CCN(CC(=O)Nc1ccc(OC)cc1)C(=O)c1cc2c(s1)CCCCC2,16.3
18,N#Cc1ccc(CSc2nnc(-c3ccncc3)n2CCc2ccccc2)cc1,-74.1
19,COc1ccc(C2CC(C(F)(F)F)n3nc(C(=O)NCc4cn(C)nc4C)c(Cl)c3N2)cc1 (stereo not drawn),11.5
20,OC(CCCN1CCC(O)(c2ccc(Cl)cc2)CC1)c1ccc(F)cc1 (stereo not drawn),-75.7
21,CCOc1cc(C2C(C#N)=C(N)OC(C)=C2C(C)=O)cc(Br)c1O (stereo not drawn),9.7
22,N#CC1=C(N)Oc2c(O)cc3ccccc3c2C1c1ccsc1 (stereo not drawn),-0.483
23,O=C(NCCCN1CCCCCC1)C1CC(=O)N(C2CCCC2)C1 (stereo not drawn),5.99

row,SMILES,"hERG current change (%, negative = inhibition) at 10uM [%]"
1,Cc1ccc(NC(=S)c2ccncc2)c(C)c1,3.39
2,O=C(N/N=C/c1ccncc1)c1ccc(OCc2ccccc2)cc1,-0.12
3,CCOC(=O)c1c(NC(=O)COC(=O)c2ccc(C)s2)sc2c1CC(C)(C)NC2(C)C,-20.5
4,Cc1ccc(SCC(=O)NN=C2CCN(C)CC2)cc1,17.4
5,COc1ccc(C2(c3ccc(OC)cc3)NC(=O)N(CC(=O)Nc3ccc(C(N)=O)cc3)C2=O)cc1,16.7
6,Cc1[nH]c(SCC(=O)Nc2cc(S(C)(=O)=O)ccc2Cl)nc1Cc1ccccc1,-20.6
7,C=CCNCCOCCOc1ccc(C)cc1[N+](=O)[O-],-19.2
8,COc1cccc(CN(C)CC(O)COc2cc(Cl)ccc2Cl)c1.O=C(O)C(=O)O (stereo not drawn),-42
9,O=C(Cc1cccc(C(F)(F)F)c1)NCc1cccnc1,7.17
10,N/C(=N\OCC(=O)Nc1ccccc1)c1nonc1N,11.4
11,Cc1ccc(F)cc1NC(=O)N1CCCN(c2ccc(C(F)(F)F)cn2)CC1,-43.3
12,CCOC(=O)C1CCN(C(=O)c2oc3ccc(S(=O)(=O)N4CCCCCC4)cc3c2C)CC1,-28.9
13,CC(=O)O/N=C(\N)c1ccc(-c2csnn2)cc1,4.02
14,CN(C)C(CNC(=O)/C=C/c1cccc(Cl)c1)c1ccccc1 (stereo not drawn),-19.2
15,O=C(CSc1nc(=O)n2cc(Cl)ccc2n1)Nc1ccc2c(c1)OCO2,4.16
16,Cc1cc(-c2ccccc2)[nH]c(=O)c1S(=O)(=O)c1ccc(Cl)cc1,14.9
17,Cc1cc(N2CCN(c3ccccc3)CC2)n2ncnc2n1,-31.2
18,Cc1ccccc1C(=O)N1CC(=O)Nc2ccc(F)cc2C1c1ccccc1 (stereo not drawn),-15.2
19,Cc1cccc(NC(=O)CS(=O)(=O)c2c[nH]c3ccccc23)c1C,4.35
20,C=CCN1C(=O)C(CC(=O)Nc2ccccc2)SC1=Nc1ccc(S(N)(=O)=O)cc1 (stereo not drawn),12
21,CSc1nc2ccc(NC(=O)C3CC(=O)N(Cc4ccccc4)C3)cc2s1 (stereo not drawn),-21

# — publication PMC4336329 (PLoS ONE, 2015)
